Test results as given in the supplement of paper PMC11741623.
The list shows a part of the results. Interaction screen of human proteins with wild-type SARS-CoV-2 proteins by split-DHFR complementation in yeast, 1 µg/mL methotrexate. Value = fitness of the pair (three or more lineages) minus that of the viral protein without a human partner, on a scale set by negative (0) and fused positive (1) controls, mean of up to three cultures; higher = more likely to interact. Active = false discovery rate below 0.05 (one-sided t-test) in at least one culture. Nearly all pairs are not hits, and differences among them are mostly noise (correlation between cultures about 0.3); most hits were seen in one culture only. Human sequences are the Swiss-Prot entries looked up by gene name; the clone may be another isoform. NSP2 values were corrected by the authors for a growth advantage. Listed are human proteins with a hit and a random twelfth of the others.

Columns and labels:
Assay in all cases: yeast fitness gain over the viral ORF with no human partner (scaled fitness); higher = more likely to interact
SARS-CoV-2 NSP1 = biological target: SARS-CoV-2 NSP1
Protocol: (§1)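 Split mouse DHFR complementation in pooled diploid yeast: human ORFeome clones carry one fragment and viral ORFs the other; barcoded lineages compete in 1 µg/mL methotrexate and fitness is read by barcode sequencing in up to three cultures.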

SARS-CoV-2 NSP10 = biological target: SARS-CoV-2 NSP10
Protocol: as §1

SARS-CoV-2 NSP12 = biological target: SARS-CoV-2 NSP12
Protocol: as §1

SARS-CoV-2 NSP13 = biological target: SARS-CoV-2 NSP13
Protocol: as §1

SARS-CoV-2 NSP2 = biological target: SARS-CoV-2 NSP2
Protocol: as §1

SARS-CoV-2 NSP5 = biological target: SARS-CoV-2 NSP5
Protocol: as §1

SARS-CoV-2 ORF10 = biological target: SARS-CoV-2 ORF10
Protocol: as §1

SARS-CoV-2 ORF6 = biological target: SARS-CoV-2 ORF6
Protocol: as §1

SARS-CoV-2 ORF7A = biological target: SARS-CoV-2 ORF7A
Protocol: as §1

SARS-CoV-2 ORF8 = biological target: SARS-CoV-2 ORF8
Protocol: as §1

SARS-CoV-2 ORF9B = biological target: SARS-CoV-2 ORF9B
Protocol: as §1

SARS-CoV-2 ORF7B = biological target: SARS-CoV-2 ORF7B
Protocol: as §1

SARS-CoV-2 NSP6 = biological target: SARS-CoV-2 NSP6
Protocol: as §1

SARS-CoV-2 NSP7 = biological target: SARS-CoV-2 NSP7
Protocol: as §1

SARS-CoV-2 NSP15 = biological target: SARS-CoV-2 NSP15
Protocol: as §1

SARS-CoV-2 NSP8 = biological target: SARS-CoV-2 NSP8
Protocol: as §1

SARS-CoV-2 NSP9 = biological target: SARS-CoV-2 NSP9
Protocol: as §1

SARS-CoV-2 ORF3A = biological target: SARS-CoV-2 ORF3A
Protocol: as §1

SARS-CoV-2 ORF3B = biological target: SARS-CoV-2 ORF3B
Protocol: as §1

SARS-CoV-2 S = biological target: SARS-CoV-2 S
Protocol: as §1

SARS-CoV-2 NSP14 = biological target: SARS-CoV-2 NSP14
Protocol: as §1

SARS-CoV-2 NSP16 = biological target: SARS-CoV-2 NSP16
Protocol: as §1

SARS-CoV-2 NSP4 = biological target: SARS-CoV-2 NSP4
Protocol: as §1

Measured: yeast fitness gain

B1: WBP2NL, Q6ICG8 (protein)
chain: MAVNQSHTENRRGALIPNGESLLKRSPNVELSFPQRSEGSNVFSGRKTGTLFLTSYRVIFITSCSISDPMLSFMMPFDLMTNLTVEQPVFAANFIKGTIQAAPYGGWEGQATFKLVFRNGDAIEFAQLMVKAASAAARGFPLRTLNDWFSSMGIYVITGEGNMCTPQMPCSVIVYGAPPAGYGAPPPGYGAPPAGYGAQPVGNEGPPVGYRASPVRYGAPPLGYGAPPAGYGAPPLGYGAPPLGYGTPPLGYGAPPLGYGAPPAGNEGPPAGYRASPAGSGARPQESTAAQAPENEASLPSASSSQVHS
inactive: SARS-CoV-2 NSP1 = -0.14 | SARS-CoV-2 NSP10 = -0.259 | SARS-CoV-2 NSP12 = -0.297 | SARS-CoV-2 NSP13 = 0.0104 | SARS-CoV-2 NSP2 = -0.128 | SARS-CoV-2 NSP5 = 0.026 | SARS-CoV-2 ORF10 = 0.0677 | SARS-CoV-2 ORF6 = -0.407 | SARS-CoV-2 ORF7A 0.0418 | SARS-CoV-2 ORF8 = -0.0243 | SARS-CoV-2 ORF9B 0.218

B2: HIF1AN, Q9NWT6 (protein)
chain: MAATAAEAVASGSGEPREEAGALGPAWDESQLRSYSFPTRPIPRLSQSDPRAEELIENEEPVVLTDTNLVYPALKWDLEYLQENIGNGDFSVYSASTHKFLYYDEKKMANFQNFKPRSNREEMKFHEFVEKLQDIQQRGGEERLYLQQTLNDTVGRKIVMDFLGFNWNWINKQQGKRGWGQLTSNLLLIGMEGNVTPAHYDEQQNFFAQIKGYKRCILFPPDQFECLYPYPVHHPCDRQSQVDFDNPDYERFPNFQNVVGYETVVGPGDVLYIPMYWWHHIESLLNGGITITVNFWYKGAPTPKRIEYPLKAHQKVAIMRNIEKMLGEALGNPQEVGPLLNTMIKGRYN
inactive: SARS-CoV-2 NSP1 = -0.112 | SARS-CoV-2 NSP13 = -0.0241 | SARS-CoV-2 ORF7B -0.158

B3: CCDC172, P0C7W6 (protein)
chain: MSLESLFQHIIFTEHQAEESRRLMREVRSEITRCREKIKKATEELNEEKIKLESKVQQFFEKSFFLQLLKAHENALEKQYSEITNHRNMLLQTFEAIKKQMIEEEDKFIKEITDFNNDYEITKKRELLMKENVKIEISDLENQANMLKSEMKSMEHDSSQLNELQKQKSELIQELFTLQRKLKVFEDEENESICTTKYLEAEKIKISEKPQNDTECLRLKKELELYKEDDMESVYEALQTEIEFLELTLAQKDLQESK
inactive: SARS-CoV-2 NSP1 = 0.00989 | SARS-CoV-2 NSP10 = -0.13 | SARS-CoV-2 NSP12 = -0.136 | SARS-CoV-2 NSP13 = -0.766 | SARS-CoV-2 NSP2 = 0.0646 | SARS-CoV-2 NSP6 = -0.0877 | SARS-CoV-2 NSP7 = 0.036 | SARS-CoV-2 ORF9B -0.488

B4: FBXO16, Q8IX29 (protein)
chain: MMAFAPPKNTDGPKMQTKMSTWTPLNHQLLNDRVFEERRALLGKWFDKWTDSQRRRILTGLLERCSLSQQKFCCRKLQEKIPAEALDFTTKLPRVLSLYIFSFLDPRSLCRCAQVCWHWKNLAELDQLWMLKCLRFNWYINFSPTPFEQGIWKKHYIQMVKELHITKPKTPPKDGFVIADVQLVTSNSPEEKQSPLSAFRSSSSLRKKNNSGEKALPPWRSSDKHPTDIIRFNYLDNRDPMETVQQGRRKRNQMTPDFSRQSHDKKNKLQDRTRLRKAQSMMSRRNPFPLCP
inactive: SARS-CoV-2 NSP1 = 0.0259 | SARS-CoV-2 NSP10 = -0.0202 | SARS-CoV-2 NSP12 = -0.0393 | SARS-CoV-2 NSP13 = -0.194 | SARS-CoV-2 NSP15 = -0.0209 | SARS-CoV-2 NSP2 = -0.0234 | SARS-CoV-2 NSP6 = -0.0336 | SARS-CoV-2 NSP8 = 0.136 | SARS-CoV-2 NSP9 = -0.0982 | SARS-CoV-2 ORF3A 0.0167 | SARS-CoV-2 ORF6 = -0.1 | SARS-CoV-2 ORF7A -0.0277 | SARS-CoV-2 ORF8 = 0.0415 | SARS-CoV-2 ORF9B -0.169

B5: FKBPL, Q9UIM3 (protein)
chain: METPPVNTIGEKDTSQPQQEWEKNLRENLDSVIQIRQQPRDPPTETLELEVSPDPASQILEHTQGAEKLVAELEGDSHKSHGSTSQMPEALQASDLWYCPDGSFVKKIVIRGHGLDKPKLGSCCRVLALGFPFGSGPPEGWTELTMGVGPWREETWGELIEKCLESMCQGEEAELQLPGHSGPPVRLTLASFTQGRDSWELETSEKEALAREERARGTELFRAGNPEGAARCYGRALRLLLTLPPPGPPERTVLHANLAACQLLLGQPQLAAQSCDRVLEREPGHLKALYRRGVAQAALGNLEKATADLKKVLAIDPKNRAAQEELGKVVIQGKNQDAGLAQGLRKMFG
inactive: SARS-CoV-2 NSP1 = -0.00227 | SARS-CoV-2 NSP10 = -0.0956 | SARS-CoV-2 NSP12 = -0.0171 | SARS-CoV-2 NSP13 = 0.023 | SARS-CoV-2 NSP2 = -0.0622 | SARS-CoV-2 NSP7 = 0.0178 | SARS-CoV-2 NSP8 = 0.0512 | SARS-CoV-2 ORF10 = -0.0945 | SARS-CoV-2 ORF3A -0.12 | SARS-CoV-2 ORF3B -0.0426 | SARS-CoV-2 ORF6 = 0.0278 | SARS-CoV-2 ORF7B 0.0168 | SARS-CoV-2 ORF8 = -0.0299 | SARS-CoV-2 ORF9B 0.0545 | SARS-CoV-2 S -0.00626

B6: HFE2, Q6ZVN8 (protein)
chain: MGEPGQSPSPRSSHGSPPTLSTLTLLLLLCGHAHSQCKILRCNAEYVSSTLSLRGGGSSGALRGGGGGGRGGGVGSGGLCRALRSYALCTRRTARTCRGDLAFHSAVHGIEDLMIQHNCSRQGPTAPPPPRGPALPGAGSGLPAPDPCDYEGRFSRLHGRPPGFLHCASFGDPHVRSFHHHFHTCRVQGAWPLLDNDFLFVQATSSPMALGANATATRKLTIIFKNMQECIDQKVYQAEVDNLPVAFEDGSINGGDRPGGSSLSIQTANPGNHVEIQAAYIGTTIIIRQTAGQLSFSIKVAEDVAMAFSAEQDLQLCVGGCPPSQRLSRSERNRRGAITIDTARRLCKEGLPVEDAYFHSCVFDVLISGDPNFTVAAQAALEDARAFLPDLEKLHLFPSDAGVPLSSATLLAPLLSGLFVLWLCIQ
inactive: SARS-CoV-2 NSP1 = 0.0291 | SARS-CoV-2 NSP10 = -0.00355 | SARS-CoV-2 NSP12 = 0.0467 | SARS-CoV-2 NSP13 = -0.00299 | SARS-CoV-2 NSP14 = -0.15 | SARS-CoV-2 NSP15 = -0.0371 | SARS-CoV-2 NSP16 = -0.0118 | SARS-CoV-2 NSP2 = -0.122 | SARS-CoV-2 NSP4 = 0.143 | SARS-CoV-2 NSP5 = 0.00641 | SARS-CoV-2 NSP6 = 0.0761 | SARS-CoV-2 NSP7 = 0.083 | SARS-CoV-2 NSP8 = 0.0219 | SARS-CoV-2 NSP9 = 0.0465 | SARS-CoV-2 ORF10 = 0.0434 | SARS-CoV-2 ORF3A 0.0189 | SARS-CoV-2 ORF3B 0.0116 | SARS-CoV-2 ORF6 = 0.062 | SARS-CoV-2 ORF7A -0.0403 | SARS-CoV-2 ORF7B -0.0023 | SARS-CoV-2 ORF8 = -0.0126 | SARS-CoV-2 ORF9B 0.0279 | SARS-CoV-2 S -0.145
